In a compilation of properties of binary mixtures (doi:10.1016/j.jct.2017.12.009):
The densities may have been worked out from excess volumes.

Assay: xn = mol fraction of the nth substance listed
Conditions: 101 kPa

CO + CCCC[N+]1(C)CCCC1.O=S(=O)([O-])C(F)(F)F
x2 = 0
Conditions | mass density [kg/m3]
278.15 K | 805.1
288.15 K | 795.7

CCCC[N+]1(C)CCCC1.O=S(=O)([O-])C(F)(F)F + CO
mass density [kg/m3]
Conditions | 278.15 K | 288.15 K | 298.15 K | 308.15 K | 318.15 K
x1 = 0.0501 | 918.3 | 909.3 | 900.3 | 891.4 | 882.4
x1 = 0.1004 | 992.5 | – | – | 966.6 | 957.9
x1 = 0.1503 | 1045 | – | 1028.1 | 1019.7 | 1011.3
x1 = 0.2002 | – | 1075.9 | – | 1059.4 | 1051.2
x1 = 0.3002 | 1138.8 | 1130.8 | 1122.8 | 1114.8 | 1106.9
x1 = 0.3996 | 1175.4 | 1167.5 | 1159.7 | – | 1144.2
x1 = 0.4998 | 1201.5 | 1193.8 | 1186.1 | 1178.5 | 1170.9
x1 = 0.6006 | 1221.3 | 1213.6 | 1206.1 | – | 1191
x1 = 0.7015 | 1236.3 | 1228.8 | 1221.4 | 1213.9 | 1206.6
x1 = 0.8013 | 1248.6 | 1241.2 | – | 1226.5 | –
x1 = 0.8427 | 1253 | 1245.6 | 1238.2 | 1230.9 | 1223.6
x1 = 0.9008 | 1258.5 | 1251 | 1243.7 | 1236.4 | 1229.2
x1 = 0.9514 | – | 1255.3 | 1248 | 1240.8 | 1233.6
x1 = 1 | 1267.1 | – | 1252.1 | 1245 | 1237.8
